# Laboratory results reported in PubChem BioAssay AID651820 (National Center for Advancing Translational Sciences (NCATS), 2012).
# The whole screen tested about 340,000 compounds, of which about 12,000 (3.5%) were called active. The inconclusive results got no clear call from the source; some entries with a clear call stand among them for comparison. Calls come from the whole dose curve; as a rule, active = well fitted inhibition curve with a large enough effect; inconclusive = small, poorly fitted or top-dose-only effect, or another doubt; inactive = no such curve, though single readings can be large or run the other way. Potencies of inconclusive entries are left out as doubtful fits.
# Assay: qHTS Assay for Inhibitors of Hepatitis C Virus (HCV)
# Conditions: Huh7.5.1 HCVcc-Cre (HCVcc is cell-culture hepatitis C virus) infection, luciferase reporter, 44 h; series mostly up to 41.8 µM
# Method in brief: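 Cells (1,000/well) were plated 4 h before compound, then infected with HCVcc-Cre virus (~0.5 moi). After 44 h further culture, infection was read as luciferase luminescence following a 15 min substrate incubation at room temperature.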
# Potency is the fitted concentration of half-maximal effect; tags give direction and shape of the fitted curve.
row,Compound,Potency
1,COC(=O)C(Nc1ccccc1Cl)(c1cc(C)c(O)c(C)c1)C(F)(F)F (configuration not stated),active: 14.1 µM
2,COCCNC(=O)Cn1c(=O)n(Cc2ccc(C(=O)NCCc3ccc(OC)c(OC)c3)cc2)c(=O)c2ccccc21,"inconclusive [inhibitor, partial curve]"
3,O=C(Nc1ccc(F)cc1)Nc1nnc(COc2ccccc2F)s1,"inconclusive [inhibitor, single point]"
4,O=C(CN1CCN(Cc2ccc(F)cc2)CC1)Nc1nc2ccccc2s1,"inconclusive [inhibitor, single point]"
5,O=c1oc2cc(OCc3c(F)cccc3Cl)ccc2cc1-c1ccccn1,inactive
6,C=CCN1C(=O)c2ccc(C(=O)OCC(=O)Nc3ccc(S(N)(=O)=O)cc3)cc2C1=O,"inconclusive [inhibitor, single point]"
7,COc1ccc(S(=O)(=O)NN(C)C(=O)c2nn(-c3ccccc3)ccc2=O)cc1,inactive
8,Cc1cccc(NC(=O)CCS(=O)(=O)c2ccc3c(c2)NC(=O)CS3)n1,inactive
9,CCCn1c(NC(=O)c2ccccc2Br)nc2ccccc21,"inconclusive [inhibitor, single point]"
10,CC(=O)c1cccc(Nc2c3c(nc4ccccc24)CCC3)c1,"inconclusive [inhibitor, partial curve]"
11,O=C(Nc1ccc(O)cc1)c1ccc(NC(=O)C2CCCO2)cc1 (configuration not stated),inactive
12,COc1ccc2oc(=N)c(C(=O)Nc3ccc(C)cc3)cc2c1,inactive
13,COC(=O)Cc1ccc(NC(=O)c2ccc(Br)o2)cc1,"inconclusive [inhibitor, full curve, poor fit]"
14,Cc1cc(C)c(C)c(S(=O)(=O)N2CCC(C(=O)N3CCN(c4ccc(F)cc4)CC3)CC2)c1C,"inconclusive [inhibitor, partial curve, poor fit]"
15,O=C(Nc1cc(S(=O)(=O)Nc2ccc(Cl)cc2)ccc1O)c1ccc(S(=O)(=O)N2CCCCCC2)cc1,"inconclusive [inhibitor, partial curve]"
16,Cc1ccc(-c2cc(C(=O)NCc3ccccn3)c3ccccc3n2)cc1C,"inconclusive [inhibitor, single point]"
17,COc1ccc2cc(C(=O)C3CCCN(Cc4cnc(C)s4)C3)ccc2c1 (configuration not stated),active: 11.2 µM
18,O=S(=O)(Nc1ccc(O)c(Sc2nc3ccccc3s2)c1)c1cccc2ccccc12,"inconclusive [inhibitor, single point]"
19,Cc1ccc(S(=O)(=O)N(C)Cc2ccc(-c3nnco3)cc2)cc1,inactive
20,CCOC(=O)c1cc(S(=O)(=O)N2CCN(C3CCCCC3)CC2)cn1C,inactive
21,CN1CCC(C2(O)c3ccccc3CCc3ccccc32)CC1,inactive
22,COc1ccc(S(=O)(=O)Oc2ccc3ccccc3c2)cc1,"inconclusive [inhibitor, partial curve]"
23,Cc1nc2ccc(NC(=S)NCc3ccccc3)cc2nc1C,"inconclusive [inhibitor, single point]"
24,COc1ccc(C(=O)NC2=NCCS2)c(OC)c1,inactive

row,Compound,Potency
1,COc1ccc(-c2cc(C(F)(F)F)nc(SCC(=O)NCc3cccs3)n2)cc1,inactive
2,CCOC(=O)N1CCN(/C=C(\C#N)c2nc3ccccc3s2)CC1,"inconclusive [inhibitor, single point]"
3,Cc1ccccc1OCCC(=O)OCC(=O)NC1CC1,inactive
4,CCOC(=O)c1c(CN(C)C)oc2cc(CN(C)C)c(O)c(CSc3ccccc3)c12,inactive
5,O=C1C(C2=NC(c3ccccn3)C3C(=O)N(c4ccc(OC(F)(F)F)cc4)C(=O)C23)=C(O)c2ccccc21 (configuration not stated),"inconclusive [inhibitor, single point]"
6,CCOc1ccc(N(CC(=O)NCCc2ccccc2)C(=O)c2csnn2)cc1,inactive
7,CN1CCN(C(=O)C2CC(=O)N(c3ccc(Cl)cc3)C2)CC1 (configuration not stated),inactive
8,CSc1cccc(NC(=O)NCc2cccc(CNC(=O)Nc3cccc(SC)c3)c2)c1,"inconclusive [inhibitor, partial curve]"
9,O=C(NCc1cccc(F)c1)c1ccc(N2C(=O)Cn3c(cc4sccc43)C2=O)cc1,"inconclusive [inhibitor, single point]"
10,COc1ccc(CCNC(=O)c2cc(C(=O)c3cc(Cl)ccc3O)cn(CCc3ccc(OC)cc3)c2=O)cc1,"inconclusive [inhibitor, partial curve, poor fit]"
11,CC(=O)c1ccc(NC(=O)c2ccc(C)c(Br)c2)cc1,"inconclusive [inhibitor, partial curve]"
12,Cc1ccc(N=Cc2nc(/C=C/c3cccc([N+](=O)[O-])c3)oc2O)cc1,"inconclusive [inhibitor, single point]"
13,Cc1cc(C)nc(SCc2nc3ncccn3c2Br)n1,inactive
14,O=C(Nc1cccc(S(=O)(=O)N2CCCCC2)c1)C1COc2ccccc2O1 (configuration not stated),active: 10 µM
15,C(=N\Nc1nc(-c2ccccc2)cs1)/c1ccco1,"inconclusive [inhibitor, single point]"
16,COc1cc(CNCCO)cc(Cl)c1OCc1ccccc1Cl,"inconclusive [inhibitor, single point]"
17,CN(C)CCNc1oc(COc2ccc(-c3ccccc3)cc2)nc1C#N,active: 10 µM
18,CC(=O)c1ccc(N2CCN(C(=O)C3CCN(S(=O)(=O)c4ccc(F)cc4)CC3)CC2)cc1,inactive
19,CC(Cc1cccs1)NC(=O)c1cccs1 (configuration not stated),inactive
20,Cc1cc(Nc2cc(C)on2)n2ncnc2n1,inactive
21,Cc1ccc(/C=N\NC(=O)C2CN(S(=O)(=O)c3ccccc3)CCN2S(=O)(=O)c2ccccc2)cc1 (configuration not stated),"inconclusive [inhibitor, single point]"
22,CCCN1C(=O)/C(=C/c2ccco2)SC1=Nc1ccc(OC)cc1,"inconclusive [inhibitor, partial curve]"
23,O=C(Nc1ccc(Cl)cc1)OCc1cc(-c2ccccc2Cl)on1,"inconclusive [inhibitor, partial curve, poor fit]"
24,C=CCn1c(SCC(=O)Nc2sc(C)c(C)c2C(=O)OCC)nnc1-c1sc(N)nc1C,"inconclusive [inhibitor, partial curve]"

row,Compound,Potency
1,CC(NC(=O)CN(c1cccc(C(F)(F)F)c1)S(=O)(=O)c1ccc(Cl)c([N+](=O)[O-])c1)c1ccccc1 (configuration not stated),"inconclusive [inhibitor, partial curve]"
2,COc1ccc(-c2cc(=O)c3c(O)cc(OC4OC(COC5OC(C)C(O)C(O)C5O)C(O)C(O)C4O)cc3o2)cc1O (configuration not stated),"inconclusive [inhibitor, partial curve]"
3,OCC1(CC2CCCCO2)CCN(Cc2cccc(O)c2)CC1 (configuration not stated),inactive
4,C/C=C(\C)C(=O)O[C@@H]([C@H](O)c1cc2ccc(=O)oc2cc1OC)C(C)(C)O,inactive
5,COc1cccc2sc3cc(C#CC4(O)CCCCC4)ccc3c(=O)c12,"inconclusive [inhibitor, single point]"
6,CCOC(=O)c1ccc(N=C2NC(=O)CS2)cc1,inactive
7,Cc1cc(NC(=O)c2cn(C3CCCCC3)c(=O)c3c2c2ccccc2n3C)no1,active: 11.2 µM
8,COc1ccc(C(=O)Nc2ccccc2-c2nnn(CC(=O)N3CCOCC3)n2)cc1,"inconclusive [inhibitor, partial curve]"
9,COc1ccccc1OCCOCCOc1ccc(C)cc1[N+](=O)[O-],inactive
10,O=C1c2ccccc2-c2nc3ccccc3cc21,inactive
11,Cc1ccc(S(=O)(=O)c2nc(S(C)(=O)=O)sc2N2CCCC2)cc1,inactive
12,CN(C)CCNc1ncnc2c1sc1nc(N3CCCC3)c3c(c12)CC(C)(C)OC3,active: 12.6 µM
13,Cc1cccc2nc(-c3cccc(NC(=O)c4ccc(Cl)cc4)c3)cn12,"inconclusive [inhibitor, single point]"
14,O=C(OCc1cccs1)c1ccccc1NS(=O)(=O)c1ccc2c(c1)OCCO2,active: 8.91 µM
15,O=C(/C=C/c1cccs1)N1CCC2(CC1)Oc1ccc(Cl)cc1C(=O)C21CC(c2cccnc2)=NO1 (configuration not stated),"inconclusive [inhibitor, partial curve]"
16,CN(CC(=O)Nc1ccc(Cl)cc1)C(=O)CCc1c[nH]c2ccccc12,inactive
17,CCC1=NN(C(=O)c2ccc(Cl)cc2)C(O)(c2ccccc2)C1 (configuration not stated),inactive
18,O=C(CSc1nc2nccnc2c(=O)n1Cc1cccs1)Nc1ccccc1,"inconclusive [inhibitor, partial curve]"
19,COc1ccc(Nc2nc(N)c([N+](=O)[O-])c(NCc3ccccc3)n2)cc1,"inconclusive [inhibitor, partial curve, poor fit]"
20,Cc1ccc(S(=O)(=O)N(C)C[C@@H]2Oc3ccc(NC(=O)CCC(F)(F)F)cc3CC(=O)N([C@@H](C)CO)C[C@@H]2C)cc1,"inconclusive [inhibitor, partial curve]"
21,N#CC1=C(N)N(c2ccccc2)C2=C(C(=O)CCC2)C1c1cccs1 (configuration not stated),"inconclusive [inhibitor, single point]"
22,Cn1c(=O)n(C)c2cc(N3CCOCC3)c(NC(=O)c3cccc(Cl)c3)cc21,"inconclusive [inhibitor, single point]"
23,O=C(Oc1ccccc1N1C(=O)C2CC=CCC2C1=O)c1ccc(Br)cc1 (configuration not stated),inactive
24,COc1ccc(-n2nnnc2SCC(=O)c2cccc(OC)c2)cc1,inactive
